This is one part of the list.
Assays:
Experiment in all cases: glycan array binding signal (z-score within array); higher = stronger binding
Conditions in all cases: glycan notation: IUPAC condensed, linker removed
Fuc(a1-2)Gal = biological target: Fuc(a1-2)Gal
Outline: (§1)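 Negative Z-scores can be read as non-binding. The Z-score is calculated within each array and then averaged across arrays of one protein sequence at different concentrations or buffers and across linkers. Arrays, 3228 in all, were curated from the Consortium for Functional Glycomics database and kept only where the protein sequence was available.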

Fuc(a1-2)Gal(b1-3)GalNAc = biological target: Fuc(a1-2)Gal(b1-3)GalNAc
Outline: as §1

[1] = biological target: Fuc(a1-2)Gal(b1-3)GalNAc(b1-3)Gal
Outline: as §1

[2] = biological target: Fuc(a1-2)Gal(b1-3)GalNAc(b1-3)Gal(a1-4)Gal(b1-4)Glc
Outline: as §1

[3] = biological target: Fuc(a1-2)Gal(b1-3)GalNAc(b1-3)Gal(b1-4)Glc
Outline: as §1

[4] = biological target: Fuc(a1-2)Gal(b1-3)GalNAc(b1-4)[Neu5Ac(a2-3)]Gal(b1-4)Glc
Outline: as §1

[5] = biological target: Fuc(a1-2)Gal(b1-3)[Fuc(a1-4)]GlcNAc
Outline: as §1

Fuc(a1-2)Gal(b1-4)Glc = biological target: Fuc(a1-2)Gal(b1-4)Glc
Outline: as §1

Fuc(a1-2)Gal(b1-4)GlcNAc = biological target: Fuc(a1-2)Gal(b1-4)GlcNAc
Outline: as §1

[6] = biological target: Fuc(a1-2)Gal(b1-4)GlcNAc(b1-3)Gal(b1-4)GlcNAc
Outline: as §1

[7] = biological target: Fuc(a1-2)Gal(b1-4)GlcNAc(b1-3)Gal(b1-4)GlcNAc(b1-3)Gal(b1-4)GlcNAc
Outline: as §1

[8] = biological target: Fuc(a1-2)Gal(b1-4)[Fuc(a1-3)]GalNAc(b1-3)Gal(b1-4)[Fuc(a1-3)]GlcNAc
Outline: as §1

[9] = biological target: Fuc(a1-2)Gal(b1-4)[Fuc(a1-3)]GalNAc(b1-3)Gal(b1-4)[Fuc(a1-3)]GlcNAc(b1-3)Gal(b1-4)[Fuc(a1-3)]GalNAc
Outline: as §1

[10] = biological target: Fuc(a1-2)Gal(b1-4)[Fuc(a1-3)]GlcNAc
Outline: as §1

Fuc(a1-2)GlcNAc = biological target: Fuc(a1-2)GlcNAc
Outline: as §1

Fuc(a1-2)[Gal(a1-3)]Gal = biological target: Fuc(a1-2)[Gal(a1-3)]Gal
Outline: as §1

[11] = biological target: Fuc(a1-2)[Gal(a1-3)]Gal(b1-3)GlcNAc
Outline: as §1

[12] = biological target: Fuc(a1-2)[Gal(a1-3)]Gal(b1-4)Glc
Outline: as §1

[13] = biological target: Fuc(a1-2)[Gal(a1-3)]Gal(b1-4)GlcNAc
Outline: as §1

[14] = biological target: Fuc(a1-2)[Gal(a1-3)]Gal(b1-4)[Fuc(a1-3)]GlcNAc
Outline: as §1

[15] = biological target: Fuc(a1-2)[Gal(a1-4)]Gal(b1-4)GalNAc
Outline: as §1

[16] = biological target: Fuc(a1-2)[GalNAc(a1-3)]Gal
Outline: as §1

[17] = biological target: Fuc(a1-2)[GalNAc(a1-3)]Gal(b1-3)GlcNAc
Outline: as §1

[18] = biological target: Fuc(a1-2)[GalNAc(a1-3)]Gal(b1-4)Glc
Outline: as §1

[19] = biological target: Fuc(a1-2)[GalNAc(a1-3)]Gal(b1-4)GlcNAc
Outline: as §1

[20] = biological target: Fuc(a1-2)[GalNAc(a1-3)]Gal(b1-4)[Fuc(a1-3)]GlcNAc
Outline: as §1

[21] = biological target: Fuc(a1-2)[GalNAc(a1-4)]Gal(b1-4)GlcNAc
Outline: as §1

Fuc(a1-3)GlcNAc = biological target: Fuc(a1-3)GlcNAc
Outline: as §1

[22] = biological target: Fuc(a1-3)[Gal(b1-4)]GlcNAc
Outline: as §1

[23] = biological target: Fuc(a1-3)[Gal(b1-4)]GlcNAc(b1-4)Gal(b1-4)[Fuc(a1-3)]GlcNAc
Outline: as §1

B1: Tulipa lectin C-1 (Tulipa hybrid) (protein)
chain: MGMALVVALAVALASTVAGQQNVLLSGNTLANEESLSYGSVKFIMQNDCNLVLYGGGFQSNTASNGKKCTLTLNNNGHLIINDGLTGRVVWRNSNAQNPVGRYAAVLRPAPGTADVAIYGPAIWSTNDEFSYQESGVVPHKLGRETPNLPRMQNLLFSGQTLYGTDGMLSSNDGSTTFELSKCQLSLSLGNEVKWKVAPTVENGKENYCHVRLDHRGHLSLLNDDNVVLFRSIPTNGVEPPIGDYVLIVEKGAGYIYGPPIWNTYDNRRYKVASA
glycan array binding signal (z-score) (Fuc(a1-2)Gal): -0.214
glycan array binding signal (z-score) (Fuc(a1-2)Gal(b1-3)GalNAc): -0.198
glycan array binding signal (z-score) [1]: -0.126
glycan array binding signal (z-score) [2]: -0.225
glycan array binding signal (z-score) [3]: -0.176
glycan array binding signal (z-score) [4]: -0.217
glycan array binding signal (z-score) [5]: -0.218
glycan array binding signal (z-score) (Fuc(a1-2)Gal(b1-4)Glc): -0.195
glycan array binding signal (z-score) (Fuc(a1-2)Gal(b1-4)GlcNAc): -0.193
glycan array binding signal (z-score) [6]: -0.2
glycan array binding signal (z-score) [7]: -0.218
glycan array binding signal (z-score) [8]: -0.219
glycan array binding signal (z-score) [9]: -0.206
glycan array binding signal (z-score) [10]: -0.028
glycan array binding signal (z-score) (Fuc(a1-2)GlcNAc): -0.229
glycan array binding signal (z-score) (Fuc(a1-2)[Gal(a1-3)]Gal): -0.235
glycan array binding signal (z-score) [11]: -0.231
glycan array binding signal (z-score) [12]: -0.209
glycan array binding signal (z-score) [13]: -0.174
glycan array binding signal (z-score) [14]: -0.223
glycan array binding signal (z-score) [15]: -0.225
glycan array binding signal (z-score) [16]: -0.219
glycan array binding signal (z-score) [17]: -0.216
glycan array binding signal (z-score) [18]: -0.214
glycan array binding signal (z-score) [19]: -0.16
glycan array binding signal (z-score) [20]: -0.221
glycan array binding signal (z-score) [21]: -0.208
glycan array binding signal (z-score) (Fuc(a1-3)GlcNAc): -0.182
glycan array binding signal (z-score) [22]: -0.217
glycan array binding signal (z-score) [23]: -0.221
